This is an account of results in publication PMC12820563.

The other results are listed elsewhere or left out. The list includes weakly bound sequences.

This experiment addresses T1, MBP-FoxP3dN (UniProt Q99JB6).
T1 sequence: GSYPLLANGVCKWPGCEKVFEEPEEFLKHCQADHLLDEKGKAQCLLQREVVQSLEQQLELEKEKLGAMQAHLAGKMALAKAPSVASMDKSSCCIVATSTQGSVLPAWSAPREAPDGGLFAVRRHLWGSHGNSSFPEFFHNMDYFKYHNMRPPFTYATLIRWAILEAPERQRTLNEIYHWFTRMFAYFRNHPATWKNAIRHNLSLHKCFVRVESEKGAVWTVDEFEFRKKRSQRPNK
The experiment is described as follows: PD-seq (MBP pull-down with sequencing). To be noted: 20 mM Tris-HCl pH 7.5, 100 mM NaCl, 1.5 mM MgCl2, 0.4 uM protein, 0.1 uM dsDNA library, 30 min, room temperature, amylose pull-down; high values mean tight binding; double strand, one strand shown.
On to “GATGATTGTTCTCCCAGCTGATGAATTGACCATCTCGAGTAAACAAATTTTCCTAATCTTTCTGTTCAAGCGCCATCTAC”, for which the binding signal (RPM ratio (pull-down/input)) amounted to 0.424.

For the sequence “GATGATTGTTCTCCCAGCTGATGAATTTAGCGCATCGAGTAAACAAATTTTCCTAATCTTTCTGTTCAAGCGCCATCTAC”, the binding signal (RPM ratio (pull-down/input)) came out at 1.5.

For the sequence “GATGATTGTTCTCCCAGCTGATGAATTTCGTAGATCGAGTAAACAAATTTTCCTAATCTTTCTGTTCAAGCGCCATCTAC”, the binding signal (RPM ratio (pull-down/input)) was found to be 0.366. Next, “GATGATTGTTCTCCCAGCTGATGAATTACGGGCTTCGAGTAAACAAATTTTCCTAATCTTTCTGTTCAAGCGCCATCTAC”: 0.401; “GATGATTGTTCTCCCAGCTGATGAATTGGTATGATCGAGTAAACAAATTTTCCTAATCTTTCTGTTCAAGCGCCATCTAC”: 0.698.

With “GATGATTGTTCTCCCAGCTGATGAATTTACTATGTCGAGTAAACAAATTTTCCTAATCTTTCTGTTCAAGCGCCATCTAC”, the binding signal (RPM ratio (pull-down/input)) was found to be 0.943. Next, “GATGATTGTTCTCCCAGCTGATGAATTGTCTATATCGAGTAAACAAATTTTCCTAATCTTTCTGTTCAAGCGCCATCTAC”: 1.03. Next, “GATGATTGTTCTCCCAGCTGATGAATTCCCTGACTCGAGTAAACAAATTTTCCTAATCTTTCTGTTCAAGCGCCATCTAC”: 0.199; “GATGATTGTTCTCCCAGCTGATGAATTGGGCTAATCGAGTAAACAAATTTTCCTAATCTTTCTGTTCAAGCGCCATCTAC”: 0.36.

Consider “GATGATTGTTCTCCCAGCTGATGAATTTTGCGAGTCGAGTAAACAAATTTTCCTAATCTTTCTGTTCAAGCGCCATCTAC”, for which the binding signal (RPM ratio (pull-down/input)) came to 1.55.

As to “GATGATTGTTCTCCCAGCTGATGAATTATAGCCATCGAGTAAACAAATTTTCCTAATCTTTCTGTTCAAGCGCCATCTAC”, the binding signal (RPM ratio (pull-down/input)) is 1.56. Turning to “GATGATTGTTCTCCCAGCTGATGAATTGCCCACATCGAGTAAACAAATTTTCCTAATCTTTCTGTTCAAGCGCCATCTAC”, the binding signal (RPM ratio (pull-down/input)) is 0.609. The same measure for “GATGATTGTTCTCCCAGCTGATGAATTAGTCACCTCGAGTAAACAAATTTTCCTAATCTTTCTGTTCAAGCGCCATCTAC”: 1.55; for “GATGATTGTTCTCCCAGCTGATGAATTTCCGGGATCGAGTAAACAAATTTTCCTAATCTTTCTGTTCAAGCGCCATCTAC”: 0.215; for “GATGATTGTTCTCCCAGCTGATGAATTAGGGCCATCGAGTAAACAAATTTTCCTAATCTTTCTGTTCAAGCGCCATCTAC”: 1.12. Next, “GATGATTGTTCTCCCAGCTGATGAATTTACATTTTCGAGTAAACAAATTTTCCTAATCTTTCTGTTCAAGCGCCATCTAC”: 0.509. Next, “GATGATTGTTCTCCCAGCTGATGAATTGGAGGACTCGAGTAAACAAATTTTCCTAATCTTTCTGTTCAAGCGCCATCTAC”: 0.276; “GATGATTGTTCTCCCAGCTGATGAATTTTAAAAATCGAGTAAACAAATTTTCCTAATCTTTCTGTTCAAGCGCCATCTAC”: 0.162; “GATGATTGTTCTCCCAGCTGATGAATTTGCATCGTCGAGTAAACAAATTTTCCTAATCTTTCTGTTCAAGCGCCATCTAC”: 4.11. “GATGATTGTTCTCCCAGCTGATGAATTTTAAACTTCGAGTAAACAAATTTTCCTAATCTTTCTGTTCAAGCGCCATCTAC”: the binding signal (RPM ratio (pull-down/input)) was 0.212. The same measure for “GATGATTGTTCTCCCAGCTGATGAATTCATCCGCTCGAGTAAACAAATTTTCCTAATCTTTCTGTTCAAGCGCCATCTAC”: 0.235; for “GATGATTGTTCTCCCAGCTGATGAATTAATAAGCTCGAGTAAACAAATTTTCCTAATCTTTCTGTTCAAGCGCCATCTAC”: 0.331; for “GATGATTGTTCTCCCAGCTGATGAATTTAGGTGCTCGAGTAAACAAATTTTCCTAATCTTTCTGTTCAAGCGCCATCTAC”: 0.661. The same measure for “GATGATTGTTCTCCCAGCTGATGAATTAAGCAGATCGAGTAAACAAATTTTCCTAATCTTTCTGTTCAAGCGCCATCTAC”: 0.319.

For the sequence “GATGATTGTTCTCCCAGCTGATGAATTACAAGCCTCGAGTAAACAAATTTTCCTAATCTTTCTGTTCAAGCGCCATCTAC”, the binding signal (RPM ratio (pull-down/input)) was 0.626. Next, “GATGATTGTTCTCCCAGCTGATGAATTTCGATAGTCGAGTAAACAAATTTTCCTAATCTTTCTGTTCAAGCGCCATCTAC”: 0.744. As to “GATGATTGTTCTCCCAGCTGATGAATTGCGCACTTCGAGTAAACAAATTTTCCTAATCTTTCTGTTCAAGCGCCATCTAC”, the binding signal (RPM ratio (pull-down/input)) amounted to 1.75.

“GATGATTGTTCTCCCAGCTGATGAATTACACGCATCGAGTAAACAAATTTTCCTAATCTTTCTGTTCAAGCGCCATCTAC”: the binding signal (RPM ratio (pull-down/input)) was determined as 1.28. The same measure for “GATGATTGTTCTCCCAGCTGATGAATTGATTAGATCGAGTAAACAAATTTTCCTAATCTTTCTGTTCAAGCGCCATCTAC”: 0.518; for “GATGATTGTTCTCCCAGCTGATGAATTGAGGAATTCGAGTAAACAAATTTTCCTAATCTTTCTGTTCAAGCGCCATCTAC”: 0.607.

On to “GATGATTGTTCTCCCAGCTGATGAATTCACGCTGTCGAGTAAACAAATTTTCCTAATCTTTCTGTTCAAGCGCCATCTAC”, for which the binding signal (RPM ratio (pull-down/input)) was found to be 0.614. The same measure for “GATGATTGTTCTCCCAGCTGATGAATTACATTAGTCGAGTAAACAAATTTTCCTAATCTTTCTGTTCAAGCGCCATCTAC”: 0.7.
